According to the supplement of paper PMC8728848:
The other results are listed elsewhere or left out.

Key:
Assay in all cases: glycan array binding signal (z-score within array); higher = stronger binding
Conditions in all cases: glycan notation: IUPAC condensed, linker removed
[1] = molecular target: Gal(a1-3)Gal(b1-4)[Fuc(a1-3)]GlcNAc
Summary of the method: (§1)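 Glycan array data were curated from 3228 arrays in the Consortium for Functional Glycomics database and kept only where the protein sequence was available. Glycan names were converted to IUPAC-condensed notation, and columns mapping to the same glycan were averaged. The binding signal is a within-array Z-score, averaged across arrays of the same protein sequence at different concentrations or buffers and across linkers. Negative Z-scores can be read as non-binding.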

[2] = molecular target: Gal(a1-3)Gal(b1-4)[Fuc(a1-3)]GlcNAc(b1-2)Man(a1-3)[Gal(a1-3)Gal(b1-4)[Fuc(a1-3)]GlcNAc(b1-2)Man(a1-6)]Man(b1-4)GlcNAc(b1-4)GlcNAc
Summary of the method: as §1

Gal(a1-3)GalNAc = molecular target: Gal(a1-3)GalNAc
Summary of the method: as §1

Gal(a1-3)GlcNAc = molecular target: Gal(a1-3)GlcNAc
Summary of the method: as §1

[3] = molecular target: Gal(a1-3)[Gal(a1-4)]Gal(b1-4)GlcNAc
Summary of the method: as §1

[4] = molecular target: Gal(a1-4)Gal(b1-3)GlcNAc(b1-2)Man(a1-3)[Gal(a1-4)Gal(b1-3)GlcNAc(b1-2)Man(a1-6)]Man(b1-4)GlcNAc(b1-4)GlcNAc
Summary of the method: as §1

Gal(a1-4)Gal(b1-4)Gal = molecular target: Gal(a1-4)Gal(b1-4)Gal
Summary of the method: as §1

Gal(a1-4)Gal(b1-4)GalNAc = molecular target: Gal(a1-4)Gal(b1-4)GalNAc
Summary of the method: as §1

Gal(a1-4)Gal(b1-4)Glc = molecular target: Gal(a1-4)Gal(b1-4)Glc
Summary of the method: as §1

Gal(a1-4)Gal(b1-4)GlcNAc = molecular target: Gal(a1-4)Gal(b1-4)GlcNAc
Summary of the method: as §1

[5] = molecular target: Gal(a1-4)Gal(b1-4)GlcNAc(b1-2)Man(a1-3)[Gal(a1-4)Gal(b1-4)GlcNAc(b1-2)Man(a1-6)]Man(b1-4)GlcNAc(b1-4)GlcNAc
Summary of the method: as §1

[6] = molecular target: Gal(a1-4)Gal(b1-4)GlcNAc(b1-3)Gal(b1-4)Glc
Summary of the method: as §1

Gal(a1-4)GlcNAc = molecular target: Gal(a1-4)GlcNAc
Summary of the method: as §1

Gal(a1-6)Glc = molecular target: Gal(a1-6)Glc
Summary of the method: as §1

Gal(b1-2)Gal = molecular target: Gal(b1-2)Gal
Summary of the method: as §1

Gal(b1-3)Gal = molecular target: Gal(b1-3)Gal
Summary of the method: as §1

Gal(b1-3)Gal(b1-4)GlcNAc = molecular target: Gal(b1-3)Gal(b1-4)GlcNAc
Summary of the method: as §1

Gal(b1-3)GalNAc = molecular target: Gal(b1-3)GalNAc
Summary of the method: as §1

[7] = molecular target: Gal(b1-3)GalNAc(a1-3)[Fuc(a1-2)]Gal(b1-4)Glc
Summary of the method: as §1

[8] = molecular target: Gal(b1-3)GalNAc(a1-3)[Fuc(a1-2)]Gal(b1-4)GlcNAc
Summary of the method: as §1

Gal(b1-3)GalNAc(b1-3)Gal = molecular target: Gal(b1-3)GalNAc(b1-3)Gal
Summary of the method: as §1

[9] = molecular target: Gal(b1-3)GalNAc(b1-3)Gal(a1-4)Gal(b1-4)Glc
Summary of the method: as §1

[10] = molecular target: Gal(b1-3)GalNAc(b1-3)Gal(b1-4)Glc
Summary of the method: as §1

[11] = molecular target: Gal(b1-3)GalNAc(b1-3)Gal(b1-4)GlcNAc
Summary of the method: as §1

[12] = molecular target: Gal(b1-3)GalNAc(b1-4)Gal(b1-4)Glc
Summary of the method: as §1

[13] = molecular target: Gal(b1-3)GalNAc(b1-4)[Neu5Ac(a2-3)]Gal(b1-4)Glc
Summary of the method: as §1

Gal(b1-3)GlcNAc = molecular target: Gal(b1-3)GlcNAc
Summary of the method: as §1

[14] = molecular target: Gal(b1-3)GlcNAc(a1-3)Gal(b1-4)GlcNAc
Summary of the method: as §1

[15] = molecular target: Gal(b1-3)GlcNAc(a1-6)Gal(b1-4)GlcNAc
Summary of the method: as §1

Gal(b1-3)GlcNAc(b1-2)Man = molecular target: Gal(b1-3)GlcNAc(b1-2)Man
Summary of the method: as §1

[16] = molecular target: Gal(b1-3)GlcNAc(b1-2)Man(a1-3)[Gal(b1-3)GlcNAc(b1-2)Man(a1-6)]Man(b1-4)GlcNAc(b1-4)GlcNAc
Summary of the method: as §1

[17] = molecular target: Gal(b1-3)GlcNAc(b1-2)Man(a1-3)[Gal(b1-3)GlcNAc(b1-2)Man(a1-6)]Man(b1-4)GlcNAc(b1-4)[Fuc(a1-6)]GlcNAc
Summary of the method: as §1

[18] = molecular target: Gal(b1-3)GlcNAc(b1-2)Man(a1-3)[GlcNAc(b1-4)][Gal(b1-3)GlcNAc(b1-2)Man(a1-6)]Man(b1-4)GlcNAc(b1-4)GlcNAc
Summary of the method: as §1

[19] = molecular target: Gal(b1-3)GlcNAc(b1-2)[Gal(b1-3)GlcNAc(b1-6)]Man(a1-6)[Gal(b1-3)GlcNAc(b1-2)Man(a1-3)]Man(b1-4)GlcNAc(b1-4)GlcNAc
Summary of the method: as §1

[20] = molecular target: Gal(b1-3)GlcNAc(b1-3)Gal(b1-3)GlcNAc
Summary of the method: as §1

[21] = molecular target: Gal(b1-3)GlcNAc(b1-3)Gal(b1-4)Glc
Summary of the method: as §1

[22] = molecular target: Gal(b1-3)GlcNAc(b1-3)Gal(b1-4)GlcNAc
Summary of the method: as §1

[23] = molecular target: Gal(b1-3)GlcNAc(b1-3)Gal(b1-4)GlcNAc(b1-2)Man(a1-3)[Gal(b1-3)GlcNAc(b1-3)Gal(b1-4)GlcNAc(b1-2)Man(a1-6)]Man(b1-4)GlcNAc(b1-4)GlcNAc
Summary of the method: as §1

[24] = molecular target: Gal(b1-3)GlcNAc(b1-3)Gal(b1-4)GlcNAc(b1-2)[Gal(b1-3)GlcNAc(b1-3)Gal(b1-4)GlcNAc(b1-6)]Man(a1-6)[Gal(b1-3)GlcNAc(b1-3)Gal(b1-4)GlcNAc(b1-2)Man(a1-3)]Man(b1-4)GlcNAc(b1-4)[Fuc(a1-6)]GlcNAc
Summary of the method: as §1

[25] = molecular target: Gal(b1-3)GlcNAc(b1-3)Gal(b1-4)GlcNAc(b1-3)Gal(b1-4)GlcNAc(b1-2)[Gal(b1-3)GlcNAc(b1-3)Gal(b1-4)GlcNAc(b1-3)Gal(b1-4)GlcNAc(b1-6)]Man(a1-6)[Gal(b1-3)GlcNAc(b1-3)Gal(b1-4)GlcNAc(b1-3)Gal(b1-4)GlcNAc(b1-2)Man(a1-3)]Man(b1-4)GlcNAc(b1-4)[Fuc(a1-6)]GlcNAc
Summary of the method: as §1

[26] = molecular target: Gal(b1-3)GlcNAc(b1-3)Gal(b1-4)GlcNAc(b1-6)[Gal(b1-3)GlcNAc(b1-3)]Gal(b1-4)Glc
Summary of the method: as §1

[27] = molecular target: Gal(b1-3)GlcNAc(b1-3)Gal(b1-4)[Fuc(a1-3)]GlcNAc(b1-6)[Gal(b1-3)GlcNAc(b1-3)]Gal(b1-4)Glc
Summary of the method: as §1

[28] = molecular target: Gal(b1-3)GlcNAc(b1-3)GalNAc
Summary of the method: as §1

[29] = molecular target: Gal(b1-3)GlcNAc(b1-6)Gal(b1-4)GlcNAc
Summary of the method: as §1

[30] = molecular target: Gal(b1-3)GlcNAc(b1-6)GalNAc
Summary of the method: as §1

B1: Gal 2 (Homo sapiens), P05162 (protein)
chain: MTGELEVKNMDMKPGSTLKITGSIADGTDGFVINLGQGTDKLNLHFNPRFSESTIVCNSLDGSNWGQEQREDHLCFSPGSEVKFTVTFESDKFKVKLPDGHELTFPNRLGHSHLSYLSVRGGFNMSSFKLKE
glycan array binding signal (z-score) [1]: -0.262
glycan array binding signal (z-score) [2]: 0.06
glycan array binding signal (z-score) (Gal(a1-3)GalNAc): -0.216
glycan array binding signal (z-score) (Gal(a1-3)GlcNAc): -0.449
glycan array binding signal (z-score) [3]: -0.222
glycan array binding signal (z-score) [4]: -0.299
glycan array binding signal (z-score) (Gal(a1-4)Gal(b1-4)Gal): -0.524
glycan array binding signal (z-score) (Gal(a1-4)Gal(b1-4)GalNAc): -0.503
glycan array binding signal (z-score) (Gal(a1-4)Gal(b1-4)Glc): -0.169
glycan array binding signal (z-score) (Gal(a1-4)Gal(b1-4)GlcNAc): -0.24
glycan array binding signal (z-score) [5]: -0.153
glycan array binding signal (z-score) [6]: -0.229
glycan array binding signal (z-score) (Gal(a1-4)GlcNAc): -0.301
glycan array binding signal (z-score) (Gal(a1-6)Glc): -0.278
glycan array binding signal (z-score) (Gal(b1-2)Gal): -0.258
glycan array binding signal (z-score) (Gal(b1-3)Gal): -0.268
glycan array binding signal (z-score) (Gal(b1-3)Gal(b1-4)GlcNAc): 0.258
glycan array binding signal (z-score) (Gal(b1-3)GalNAc): 0.061
glycan array binding signal (z-score) [7]: -0.017
glycan array binding signal (z-score) [8]: 9.48
glycan array binding signal (z-score) (Gal(b1-3)GalNAc(b1-3)Gal): -0.232
glycan array binding signal (z-score) [9]: -0.29
glycan array binding signal (z-score) [10]: 1.48
glycan array binding signal (z-score) [11]: 1.91
glycan array binding signal (z-score) [12]: -0.257
glycan array binding signal (z-score) [13]: -0.263
glycan array binding signal (z-score) (Gal(b1-3)GlcNAc): -0.073
glycan array binding signal (z-score) [14]: -0.111
glycan array binding signal (z-score) [15]: -0.303
glycan array binding signal (z-score) (Gal(b1-3)GlcNAc(b1-2)Man): -0.167
glycan array binding signal (z-score) [16]: -0.219
glycan array binding signal (z-score) [17]: 0.094
glycan array binding signal (z-score) [18]: -0.221
glycan array binding signal (z-score) [19]: -0.315
glycan array binding signal (z-score) [20]: 0.309
glycan array binding signal (z-score) [21]: 0.74
glycan array binding signal (z-score) [22]: 0.837
glycan array binding signal (z-score) [23]: -0.151
glycan array binding signal (z-score) [24]: 0.217
glycan array binding signal (z-score) [25]: -0.06
glycan array binding signal (z-score) [26]: -0.173
glycan array binding signal (z-score) [27]: -0.248
glycan array binding signal (z-score) [28]: -0.181
glycan array binding signal (z-score) [29]: -0.078
glycan array binding signal (z-score) [30]: -0.181
